In brackets after ≈: the same amount, converted by molar mass. Read-outs that look alike come from different tables or passages of the source.
Tests used:
Coxsackie B3 = assay: microbe, parasite or virus in culture; conditions: Enterovirus B
Coxsackie B1 = assay: organism not typed; conditions: read-out: Coxsackie B1 EC50
Rhinovirus = assay: microbe, parasite or virus in culture; assay type: cell-based; conditions: Enterovirus, HRV14, read-out: Rhino HRV14 EC50
[1] = B3, read-out: Coxsackie B3 EC50
[2] = B3, HeLa37, 48 h, read-out: Coxsackie B3 EC50

SMILES	EC50 (Coxsackie B3; [1])	EC50 (Coxsackie B1)	EC50 (Coxsackie B3; [2])	EC50 (Rhinovirus)
CC(=O)O[C@@]12Oc3cc(C(C)C)ccc3[C@]1(OC(C)=O)C(=O)c1c(NS(C)(=O)=O)cccc12 (stereo in doubt) [Example 54, acetic acid 4b-acetoxy-7-isopropyl-1-methanesulfonylamino-10-oxo-4b,10-dihydro-5-oxa-indeno[2,1-a]inden-9b-yl ester]	0.0147 mg/L (≈ 0.031 µM)	0.014 mg/L (≈ 0.0296 µM)		
CC(=O)OC12Oc3cc(C)ccc3C1(OC(C)=O)C(=O)c1ccccc12 (stereo not shown) [Example 2, 7-Methyl-10-oxo-9b,10-dihydro-4bH-benzo[d]indeno[1,2-b]furane-4b,9b-diyl diacetate]	0.02 mg/L			
Cc1cc2c(cc1C)C1(O)C(=O)c3ccccc3C1(O)O2 (stereo not shown) [Example 4, 4b,9b-dihydroxy-7,8-dimethyl-4bH-benzo[d]indeno[1,2-b]furan-10(9bH)-one]	0.019 mg/L (≈ 0.0673 µM)			
CCc1ccc2c(c1)OC1(O)c3ccccc3C(=O)C21O (stereo not shown) [Example 9, 7-Ethyl-4b,9b-dihydroxy-4bH-benzo[d]indeno[1,2-b]furan-10(9bH)-one]	0.027 mg/L (≈ 0.0956 µM)	< 0.01 mg/L		
CC(=O)OC12Oc3cc(C(C)C)ccc3C1(OC(C)=O)C(=O)c1ccccc12 (stereo not shown) [Example 11, 7-Isopropyl-10-oxo-9b,10-dihydro-4bH-benzo[d]indeno[1,2-b]furane-4b,9b-diyl diacetate]	< 0.01 mg/L	< 0.01 mg/L		
CC(=O)O[C@@]12Oc3cc(C(C)C)ccc3[C@]1(OC(C)=O)C(=O)c1c(N)cccc12 [Example 47, 1-Amino-7-isopropyl-10-oxo-9b,10-dihydro-4bH-benzo[d]indeno[1,2-b]furane-4b,9b-diyl diacetate]	< 0.01 mg/L	< 0.01 mg/L	< 0.01 mg/L	
CCc1ccc2c(c1)OC1(O)c3cccc(N)c3C(=O)C21O (stereo not shown) [Example 50, 1-Amino-7-ethyl-4b,9b-dihydroxy-4b,9b-dihydro-5-oxa-indeno[2,1-a]inden-10-one]	< 0.01 mg/L	< 0.01 mg/L	< 0.01 mg/L	
COC(=O)O[C@@]12Oc3cc(C(C)C)ccc3[C@]1(OC(=O)OC)C(=O)c1c(N)cccc12 [Example 51]	< 0.01 mg/L	< 0.01 mg/L		
CC(C)c1ccc2c(c1)OC1(O)c3ccc([N+](=O)[O-])c(N)c3C(=O)C21O (stereo not shown) [Example 60, 1-Amino-4b,9b-dihydroxy-7-isopropyl-2-nitro-4bH-indeno[1,2-b]benzofuran-10(9bH)-one]	< 0.01 mg/L	< 0.01 mg/L		
CC(C)c1ccc2c(c1)OC1(O)c3c(N)ccc(N)c3C(=O)C21O (stereo not shown) [Example 61, 1,4-diamino-4b,9b-dihydroxy-7-isopropyl-4bH-benzo[d]indeno[1,2-b]furan-10(9bH)-one]	< 0.01 mg/L	< 0.01 mg/L		
CC(C)c1ccc2c(c1)OC1(O)c3ccc(N)c(N)c3C(=O)C21O (stereo not shown) [Example 62, 1,2-Diamino-4b,9b-dihydroxy-7-isopropyl-4bH-indeno[1,2-b]benzofuran-10(9bH)-one]	< 0.01 mg/L	< 0.01 mg/L		
CC(C)c1cc(C(C)C)c2c(c1)C1(O)C(=O)c3ccccc3C1(O)O2 (stereo not shown) [Example 64, 4b,9b-Dihydroxy-6,8-diisopropyl-4b,9b-dihydro-5-oxa-indeno[2,1-a]inden-10-one]	< 0.01 mg/L	< 0.01 mg/L		
CC(C)c1ccc2c(c1)OC1(O)c3ccccc3C(=O)C21N (stereo not shown) [Example 65, 9b-Amino-4b-hydroxy-7-isopropyl-4b,9b-dihydro-5-oxa-indeno[2,1-a]inden-10-one]	0.015 mg/L (≈ 0.0508 µM)	< 0.01 mg/L		
CC(=O)NC12C(=O)c3ccccc3C1(O)Oc1cc(C(C)C)ccc12 (stereo not shown) [Example 66, N-(4b-Hydroxy-7-isopropyl-10-oxo-4b,10-dihydro-5-oxa-indeno[2,1-a]inden-9b-yl)-acetamide]	< 0.01 mg/L	< 0.01 mg/L		
CC(C)c1cc(C(C)C)c2c(c1)C1(N)C(=O)c3ccccc3C1(O)O2 (stereo not shown) [Example 68, 9b-Amino-4b-hydroxy-6,8-diisopropyl-4b,9b-dihydro-5-oxa-indeno[2,1-a]inden-10-one]	< 0.01 mg/L	< 0.01 mg/L		
CCCCC(=O)NC12C(=O)c3c(N)cccc3C1(O)Oc1cc(C(C)C)ccc12 (stereo not shown) [Example 78, Pentanoic acid (1-amino-4b-hydroxy-7-isopropyl-10-oxo-4b,10-dihydro-5-oxa-indeno[2,1-a]inden-9b-yl)-amide]		0.025 mg/L (≈ 0.0634 µM)		< 0.01 mg/L
CC(=O)Nc1cccc2c1C(=O)[C@@]1(NC(C)=O)c3ccc(C(C)C)cc3O[C@@]21O [Example 87, N,N′-((4bS,9bS)-4b-Hydroxy-7-isopropyl-10-oxo-9b,10-dihydro-4bH-benzo[d]indeno[1,2-b]furane-1,9b-diyl)diacetamide]	< 0.01 mg/L	< 0.01 mg/L		
CCCC(=O)NC12C(=O)c3ccccc3C1(OC(=O)CCC)Oc1cc(C(C)C)ccc12 (stereo not shown) [Example 89, Butyric acid 9b-butyrylamino-7-isopropyl-10-oxo-9b,10-dihydro-5-oxa-indeno[2,1-a]inden-4b-yl ester]	< 0.01 mg/L	< 0.01 mg/L		

SMILES	EC50 (Coxsackie B3; [1])	EC50 (Coxsackie B1)	EC50 (Coxsackie B3; [2])	EC50 (Rhinovirus)
CCCCCCCC(=O)NC12C(=O)c3ccccc3C1(O)Oc1cc(C(C)C)ccc12 (stereo not shown) [Example 90]	< 0.01 mg/L	< 0.01 mg/L		
CO[C@@]12C(=O)c3ccccc3[C@]1(O)Oc1cc(C(C)C)ccc12 [Example 98, (4bS,9bS)-4b-Hydroxy-7-isopropyl-9b-methoxy-4bH-indeno[1,2-b]benzofuran-10(9bH)-one]	0.022 mg/L (≈ 0.0709 µM)	< 0.01 mg/L		
CCC(=O)N1c2cc(C)c(C)cc2C2(O)C(=O)c3ccccc3C12O (stereo not shown) [Example 105, 4b,9b-Dihydroxy-7,8-dimethyl-5-propionyl-4b,5-dihydroindeno[1,2-b]indol-10(9bH)-one]	0.016 mg/L (≈ 0.0474 µM)	0.018 mg/L (≈ 0.0534 µM)		
COC(=O)OC12Oc3cc(C(C)C)ccc3C1(NC(C)=O)C(=O)c1ccccc12 (stereo not shown) [Example 111, 9b-Acetamido-7-isopropyl-10-oxo-9b,10-dihydro-4bH-indeno[1,2-b]benzofuran-4b-yl methyl carbonate]	< 0.01 mg/L	< 0.01 mg/L		
CCCCC(=O)OC12Oc3cc(C(C)C)ccc3C1(NC(C)=O)C(=O)c1ccccc12 (stereo not shown) [Example 112, 9b-Acetamido-7-isopropyl-10-oxo-9b,10-dihydro-4bH-indeno[1,2-b]benzofuran-4b-yl pentanoate]	< 0.01 mg/L	< 0.01 mg/L		
CCOC(=O)OC12Oc3cc(C(C)C)ccc3C1(NC(C)=O)C(=O)c1ccccc12 (stereo not shown) [Example 116, 9b-Acetamido-7-isopropyl-10-oxo-9b,10-dihydro-4bH-benzo[d]indeno[1,2-b]furan-4b-yl ethyl carbonate]	< 0.01 mg/L	< 0.01 mg/L		
CNC(=O)OC12Oc3cc(C(C)C)ccc3C1(NC(C)=O)C(=O)c1ccccc12 (stereo not shown) [Example 118, 9b-Acetamido-7-isopropyl-10-oxo-9b,10-dihydro-4bH-benzo[d]indeno[1,2-b]furan-4b-yl methylcarbamate]	< 0.01 mg/L	< 0.01 mg/L		
CC(=O)NC12C(=O)c3c(Br)cccc3C1(O)Oc1cc(C(C)C)ccc12 (stereo not shown) [Example 137, N-(1-Bromo-4b-hydroxy-7-isopropyl-10-oxo-9b,10-dihydro-4bH-indeno[1,2-b]benzofuran-9b-yl)acetamide]	< 0.01 mg/L	< 0.01 mg/L		
CC(C)c1cc(C(C)C)c2c(c1)C1(O)C(=O)c3c(N)cccc3C1(O)O2 (stereo not shown) [Example 157, 1-Amino-4b,9b-dihydroxy-6,8-diisopropyl-4bH-benzo[d]indeno[1,2-b]furan-10(9bH)-one]	< 0.01 mg/L	< 0.01 mg/L		
CC(C)c1ccc2c(c1)OC1(O)c3cccc(N)c3C(=O)C21NC(=O)Nc1ccc(F)cc1 (stereo not shown) [Example 164, 1-(1-Amino-4b-hydroxy-7-isopropyl-10-oxo-9b,10-dihydro-4bH-indeno[1,2-b]benzofuran-9b-yl)-3-(4-fluorophenyl)urea]	0.04 mg/L (≈ 0.0894 µM)	0.04 mg/L (≈ 0.0894 µM)		
CC(C)c1ccc2c(c1)OC1(O)c3cccc(N)c3C(=O)C21NS(=O)(=O)C(F)(F)F (stereo not shown) [Example 176, N-(1-Amino-4b-hydroxy-7-isopropyl-10-oxo-9b,10-dihydro-4bH-benzo[d]indeno[1,2-b]furan-9b-yl)-1,1,1-trifluoromethanesulfonamide]	0.037 mg/L (≈ 0.0836 µM)	0.037 mg/L (≈ 0.0836 µM)		
O=C1c2ccccc2C2(O)Oc3ccccc3C12NS(=O)(=O)C(F)(F)F (stereo not shown) [Example 178, 1,1,1-Trifluoro-N-(4b-hydroxy-10-oxo-9b,10-dihydro-4bH-benzo[d]indeno[1,2-b]furan-9b-yl)methanesulfonamide]	0.035 mg/L (≈ 0.0908 µM)	< 0.01 mg/L		
CC(C)c1ccc2c(c1)OC1(O)c3ccccc3C(=O)C21NC(=O)[C@@H](C)NC(=O)OC(C)(C)C (stereo partly drawn) [Example 184, tert-Butyl(2R)-1-(4b-hydroxy-7-isopropyl-10-oxo-9b,10-dihydro-4bH-benzo[d]indeno[1,2-b]furan-9b-ylamino)-1-oxopropan-2-ylcarbamate]	0.025 mg/L (≈ 0.0536 µM)	< 0.01 mg/L		
CC(C)c1ccc2c(c1)OC1(O)c3cccc(N)c3C(=O)C21NC(=O)c1c(Cl)cc(Cl)cc1Cl (stereo not shown) [Example 192, N-(1-Amino-4b-hydroxy-7-isopropyl-10-oxo-9b,10-dihydro-4bH-indeno[1,2-b]benzofuran-9b-yl)-2,4,6-trichlorobenzamide]	< 0.01 mg/L	< 0.01 mg/L		
CCCCc1cn(C23C(=O)c4c(N)cccc4C2(O)Oc2cc(C(C)C)ccc23)nn1 (stereo not shown) [Example 196, 1-amino-9b-(4-butyl-1H-1,2,3-triazol-1-yl)-4b-hydroxy-7-isopropyl-4bH-indeno[1,2-b]benzofuran-10(9bH)-one]	< 0.01 mg/L	< 0.01 mg/L		
Cc1ccc(C(=O)NC23C(=O)c4c(N)cccc4C2(O)Oc2cc(C(C)C)ccc23)s1 (stereo not shown) [Example 216, N-(1-Amino-4b-hydroxy-7-isopropyl-10-oxo-9b,10-dihydro-4bH-indeno[1,2-b]benzofuran-9b-yl)-5-methylthiophene-2-carboxamide]	0.037 mg/L (≈ 0.0852 µM)	0.036 mg/L (≈ 0.0829 µM)		
CC(C)c1ccc2c(c1)OC1(O)c3cccc(N)c3C(=O)C21NC(=O)c1cc2ccccn2c1 (stereo not shown) [Example 283, N-(1-Amino-4b-hydroxy-7-isopropyl-10-oxo-9b,10-dihydro-4bH-indeno[1,2-b]benzofuran-9b-yl) indolizine-2-carboxamide]		0.024 mg/L (≈ 0.0529 µM)		0.024 mg/L (≈ 0.0529 µM)

— patent publication US9890133B2 (priority 2011, dated 2018)
